Source: PubChem BioAssay AID686978 (National Center for Advancing Translational Sciences (NCATS), 2013)
In all, about 420,000 compounds went through this assay and about 64,000 (15%) were called active. The shares of active, inactive and inconclusive entries below differ from those in the screen. The call rests on the fitted dose curve; in most records, active means well fitted inhibition curve with a large enough effect; inconclusive means small, poorly fitted or top-dose-only effect; inactive means flat fitted curve, though single readings scatter. No potency is given beside an inconclusive call; the fits are too rough.

Test: qHTS for Inhibitors of human tyrosyl-DNA phosphodiesterase 1 (TDP1): qHTS in cells in absence of CPT; further: nearly all actives have a fitted effect of over 55% in size
Settings: DT40 Tdp1-/- hTDP1 cells, no CPT, ATP luminescence, 48 h; series mostly up to 46.2 µM
In short: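 Readout: luminescence from CellTiter-Glo after 30 min in the dark at RT. Cells: DT40 Tdp1-/- with stable hTDP1, 400/well. Exposure: compounds alone, ≥48 hr, 37 °C.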
Potency means the concentration at half of the fitted maximal effect; tags describe the fitted curve by direction and shape.

Row | SMILES | Potency
1 | CCCCCCCCNCCS(=O)(=O)NC1CCCCC1 | inconclusive [inhibitor, single point]
2 | O=C(N/N=C/c1ccc(-c2cccc([N+](=O)[O-])c2)o1)[C@H]1C[C@@H]1c1ccccc1 | active: 16.4 µM
3 | O=S(=O)(NCCCN1CCOCC1)c1ccc(Cl)s1 | active: 23.1 µM
4 | CCOc1cc(C(=O)Nc2ccccc2N2CCN(S(C)(=O)=O)CC2)cc(OCC)c1OCC | inconclusive [inhibitor, single point]
5 | CCOC(=O)Cn1c(=O)c2c(nc(N3CCOCC3)n2Cc2ccccc2)n(C)c1=O | active: 16.4 µM
6 | N/C(=N\OC(=O)CCn1cccc(C(F)(F)F)c1=O)c1ccc(OC(F)(F)F)cc1 | inactive
7 | Cc1cc(=O)oc2cc(OCC(=O)Nc3cccnc3)ccc12 | inconclusive [inhibitor, partial curve, poor fit]
8 | CCc1cccc(Nc2c([N+](=O)[O-])cc(C(=O)N3CC(=O)Nc4ccccc43)cc2[N+](=O)[O-])c1 | inconclusive [inhibitor, partial curve, poor fit]
9 | CCOc1ccc(N(C(C)C(=O)NCCSc2ccc(Cl)cc2)S(C)(=O)=O)cc1 (stereo not given) | active: 25.9 µM
10 | CCCCN1c2ccccc2N(CCCO)c2cc(C)nnc21 | inactive
11 | COC(=O)[C@H]1C[C@@]2(O)CN(S(=O)(=O)c3ccc(C)cc3)C[C@@]2(OC(=O)NCC2CCCCC2)C[C@H]1C(=O)OC | inconclusive [inhibitor, full curve, poor fit]
12 | CCc1ccc(CNC(=O)C2CCN(c3nnc(C)c4c(C)n(-c5ccc(C)cc5)nc34)CC2)cc1 | active: 5.17 µM
13 | Oc1ccc(/C=N/n2c(COc3ccccc3)n[nH]c2=S)c(O)c1 | inactive
14 | C=CCNCCOCCSc1ccc(Cl)cc1 | inconclusive [inhibitor, single point]
15 | Cc1cccc(OCC(=O)Nc2ccc(NC(=O)c3ccccc3)cc2)c1 | inactive
16 | O=C(CN1CCCc2ccccc21)Nc1cccc(S(=O)(=O)N2CCCC2)c1 | inconclusive [inhibitor, single point]
17 | Cc1ccc2nc(Nc3nc(CSc4nnnn4-c4ccccc4)cc(=O)[nH]3)nc(C)c2c1 | inactive
18 | NC(N)=N/N=C/c1ccc(OCc2ccc(Cl)cc2)cc1 | inconclusive [inhibitor, single point]
19 | COC(=O)c1cc(S(=O)(=O)N(C)C2CCCCC2)cn1C | inconclusive [inhibitor, single point]
20 | Cc1cc(/C=C2\Cc3ccccc3C2=O)c(C)n1-c1ccccc1 | active: 13 µM
21 | COc1cc(-c2ccc(=O)[nH]n2)ccc1OC(F)F | inactive
22 | Cc1nnsc1S(=O)c1ccc(Br)cc1 (stereo not given) | inconclusive [inhibitor, partial curve, poor fit]
23 | CC(=O)c1c(C)[nH]c(C(=O)OC(C)C(=O)Nc2cc(S(=O)(=O)N3CCCCC3)ccc2Cl)c1C (stereo not given) | inconclusive [inhibitor, single point]

Row | SMILES | Potency
24 | CSc1ccccc1OCc1cc(C(=O)N(C)C2CCCc3ccccc32)no1 (stereo not given) | inconclusive [inhibitor, single point]
25 | Cc1ccc(C(C(=O)NC(C)(C)C)N(C(=O)CCC(=O)Nc2ccccn2)c2ccccc2F)cc1 (stereo not given) | inconclusive [inhibitor, partial curve]
26 | Cc1cccc(N2CCN(C(=O)C3CCC(CNS(=O)(=O)c4cccs4)CC3)CC2)c1C (stereo not given) | active: 13 µM
27 | Cn1cccc1/C=N/n1c(-c2ccc(C(C)(C)C)cc2)n[nH]c1=S | active: 8.2 µM
28 | CCN(CC)S(=O)(=O)c1cc(-c2nnc(-c3ccc(Br)cc3)o2)ccc1Cl | active: 18.4 µM
29 | CC(C)(C)N1CC(c2nc3ccccc3n2Cc2ccccc2)CC1=O (stereo not given) | inconclusive [inhibitor, single point]
30 | O=C(Cn1nc(-c2ccccc2)c2cnc3ccc(F)cc3c21)NC1CCCC1 | inactive
31 | COc1ccc(OC)c(C2=NOC(C(=O)Nc3ccccc3SC)C2)c1 (stereo not given) | inconclusive [inhibitor, single point]
32 | O=C1CC(=O)CC(c2ccccc2)C1 | inactive
33 | Cc1cccc(C(=O)NC(=S)N2CCN(C)CC2)c1 | inconclusive [inhibitor, partial curve, poor fit]
34 | O=C(c1cn(-c2ccccc2)nc1-c1cccc([N+](=O)[O-])c1)N1CCCCC1 | inconclusive [inhibitor, single point]
35 | CCOCCCn1c(=NC(C)=O)c(C#N)cc2c(=O)n3ccccc3nc21 | inactive
36 | CCOc1ccc(N(Cc2ccc(OC)c(OC)c2)C(=O)c2ccco2)cc1 | active: 18.4 µM
37 | CCOc1ccc(NC(=O)CN2CCN(CC(=O)Nc3ccccc3OC)CC2)cc1 | inconclusive [inhibitor, single point]
38 | O=C(Nc1nnc(S(=O)(=O)N2CCCCCC2)s1)c1ccccc1F | inconclusive [inhibitor, single point]
39 | COc1ccccc1N1CCN(C(=O)c2ccc(CS(=O)(=O)c3ccccc3OC)o2)CC1 | inconclusive [inhibitor, single point]
40 | O=C(c1ccccc1)N1N=C(c2ccccc2)CC1c1ccccc1O (stereo not given) | inconclusive [inhibitor, single point]
41 | COc1cccc(C(=O)NC(=S)Nc2ccc([N+](=O)[O-])cc2C)c1 | inconclusive [inhibitor, single point]
42 | CCC(C(=O)OC)n1cnc2c(cnn2-c2ccc(Cl)cc2)c1=O (stereo not given) | inconclusive [inhibitor, partial curve]
43 | CCOc1cccc2sc(N3CCN(C(=O)C(C)(C)C)CC3)nc12 | active: 20.6 µM
44 | N#CC1(NC(=O)CSc2nc3ccccc3s2)CCCCC1 | inconclusive [inhibitor, single point]
45 | CCCCCCSc1ccc([C@@H]2[C@@H]3C(=O)N(C)C(=O)[C@@H]3[C@]3(C(=O)OC)CCCCN23)cc1 | active: 25.9 µM
